The text below walks through data of the supplement of paper PMC9446081.

In all, about 39,000 compounds went through this assay and about 220 (0.56%) showed activity. The list shows a part of the results.
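Note: static incubation at 37 °C against the wild-type strain, values averaged over two biological replicates.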

The subject of the assay is Escherichia coli K-12 BW25113. Briefly: relative growth (OD600 normalised to plate interquartile mean) (fraction); higher = less growth inhibition, active = 0.2 or less. The conditions noted are these: 50 µM; LB; incubation time: overnight (16-24 h).
`C[C@H]1CN([C@@H](C)CO)S(=O)(=O)c2ccc(C#Cc3cccc(F)c3)cc2O[C@H]1CN(C)S(=O)(=O)c1ccccc1F`: the relative growth is inactive: 1.03. In the case of `C[C@@H]1CN([C@H](C)CO)C(=O)Cc2cc(NC(=O)Cc3cn(C)c4ccccc34)ccc2O[C@@H]1CN(C)Cc1ccc(C(=O)Nc2ccccc2N)cc1`, the relative growth was inactive: 1. As for `C[C@H](CO)N1C[C@H](C)[C@H](CN(C)Cc2ccc(Oc3ccccc3)cc2)Oc2ccc(NC(=O)c3ccncc3)cc2CC1=O`, the figure is inactive: 1.02; as for `C[C@H](CO)N1C[C@H](C)[C@@H](CN(C)C(=O)Cc2ccccc2)OCCCC[C@H](C)Oc2ccc(NS(=O)(=O)c3cccs3)cc2C1=O`, inactive: 0.995. For the molecule `C[C@@H]1CN([C@H](C)CO)C(=O)c2cc(NC(=O)Nc3ccccc3)ccc2O[C@H]1CN(C)S(=O)(=O)c1cn(C)cn1`, the relative growth is inactive: 0.978. For `Cc1cc(C(=O)Nc2cccc3c2O[C@@H](CN(C)Cc2ccccc2)[C@@H](C)CN([C@H](C)CO)C3=O)n(C)n1`, the relative growth was inactive: 0.967. Then `COc1ccc2cc(C(C)C(=O)O)ccc2c1` (stereo not given), with inactive: 1.18. In the case of `COc1ccc(C#Cc2cccc(-c3nc(C(=O)N4CCN(Cc5ccccc5)CC4)cc4c3[C@@H](CCO)N(S(=O)C(C)(C)C)C4)c2)cc1OC` (stereo not given in full), the relative growth was inactive: 1.04. On to `COc1cccc(OC)c1C(=O)NC1C(=O)N2C1SC(C)(C)C2C(=O)[O-].[Na+]` (stereo not given), for which the relative growth is inactive: 1.01. `Cc1ccc(S(=O)(=O)Nc2ccc3c(c2)C(=O)N([C@H](C)CO)C[C@@H](C)[C@@H](CN(C)Cc2ccc(Oc4ccccc4)cc2)O3)cc1`: the relative growth was inactive: 1.01. As to `CO[C@H]1CN(C)C(=O)c2cc(NC(=O)Nc3ccccc3F)ccc2OC[C@H](C)N(CCC(F)(F)F)C[C@H]1C`, the relative growth is inactive: 1.02. Take `C[C@H](CO)N1C[C@H](C)[C@@H](CN(C)S(=O)(=O)c2cccc(F)c2)Oc2ncc(-c3cccc(C(=O)N(C)C)c3)cc2C1=O`: the relative growth was inactive: 0.999. In the case of `Cc1noc(C)c1S(=O)(=O)Nc1ccc2c(c1)C(=O)N([C@H](C)CO)C[C@@H](C)[C@H](CN(C)Cc1ccc(C(=O)O)cc1)O2`, the relative growth is inactive: 0.991.

Regarding `COc1ccc2c3c([nH]c2c1)[C@@H](CO)N(C[C@]13CCN(CC1)CC1CCCC1)C(=O)CN1CCOCC1`, the relative growth was inactive: 0.995. With `CNC[C@@H]1OCCCC[C@H](C)Oc2ccc(NC(=O)c3ccncc3)cc2C(=O)N([C@H](C)CO)C[C@H]1C`, the relative growth was inactive: 0.986. In the case of `COc1ccc(NC(=O)Nc2ccc3c(c2)C(=O)N([C@H](C)CO)C[C@H](C)[C@@H](CN(C)S(=O)(=O)c2ccc(F)cc2)OCCCC[C@H](C)O3)cc1`, the relative growth is inactive: 1.04. Then `C[C@@H]1CCCCO[C@H](CN(C)S(C)(=O)=O)[C@@H](C)CN([C@@H](C)CO)C(=O)c2cc(NS(=O)(=O)c3ccccc3)ccc2O1`, with inactive: 0.995. As for `O=S(=O)([O-])c1cc(I)c(O)c2ncccc12.[Na+]`, the figure is inactive: 0.58; as for `NCc1cccc(N2CCCCC2)c1`, inactive: 0.995. As for `CCS(=O)(=O)N1C[C@]2(CN(C2)S(=O)(=O)c2cn(cn2)C)c2c([nH]c3cc(ccc23)OC)[C@@H]1CO`, the figure is inactive: 0.985; as for `COCC(=O)N(C)C[C@@H]1Oc2cc(C#C[C@@H](C)O)ccc2S(=O)(=O)N([C@H](C)CO)C[C@H]1C`, inactive: 0.963.

As for `CC(C)CC#Cc1ccc2c(c1)O[C@H](CN(C)CC1CCOCC1)[C@H](C)CN([C@@H](C)CO)S2(=O)=O`, the relative growth is inactive: 1.03. In the case of `CCc1nn(C)c2c(=O)c(=O)c2n(C)[nH]1`, the relative growth is inactive: 1.03.

As for `CC(C)NC(=O)N(C)C[C@H]1Oc2ccc(NC(=O)C3CCCCC3)cc2C(=O)N([C@H](C)CO)C[C@@H]1C`, the relative growth was inactive: 0.985.

As to `C[C@H](CO)N1C[C@H](C)[C@@H](CN(C)Cc2ccc(Cl)c(Cl)c2)Oc2ccc(NC(=O)Cc3ccccc3)cc2CC1=O`, the relative growth was inactive: 0.961.

As to `C[C@@H]1CN([C@@H](C)CO)C(=O)c2cc(NC(=O)Nc3ccc(C(F)(F)F)cc3)ccc2O[C@@H](C)CCCCO[C@H]1CN(C)C`, the relative growth is inactive: 0.999. `COc1ccc(CN(C)C[C@H]2OCCCC[C@H](C)Oc3ccc(NS(=O)(=O)c4ccc(Cl)cc4)cc3C(=O)N([C@H](C)CO)C[C@H]2C)cc1`: the relative growth is inactive: 0.982.

Consider `COc1ccc2[nH]c(=O)[nH]c(=O)c2c1`, for which the relative growth was inactive: 0.826.

With `C[C@@H]1CCCCO[C@@H](CN(C)C(=O)Nc2cccc3ccccc23)[C@@H](C)CN([C@H](C)CO)C(=O)c2cc(NS(C)(=O)=O)ccc2O1`, the relative growth is inactive: 1. Turning to `Cc1noc(C)c1S(=O)(=O)N(C)C[C@@H]1Oc2ccc(NS(C)(=O)=O)cc2C(=O)N([C@H](C)CO)C[C@@H]1C`, the relative growth is inactive: 0.998.

In the case of `Cc1ccc(S(=O)(=O)Nc2ccc3c(c2)CC(=O)N([C@@H](C)CO)C[C@@H](C)[C@H](CN(C)Cc2ccc(Cl)c(Cl)c2)O3)cc1`, the relative growth was inactive: 0.974. Then `Cc1ccccc1NC(=O)C[C@H]1NCCNC1=O`, with inactive: 0.995; and `COCC#Cc1ccc2c(c1)O[C@H](CN(C)C(=O)c1ccccc1F)[C@H](C)CN([C@@H](C)CO)S2(=O)=O`, with inactive: 1.03; and `O=C(C[C@@H]1C=C[C@@H](NS(=O)(=O)c2ccccc2F)[C@H](CO)O1)NCCCN1CCOCC1`, with inactive: 1.02. For `C[C@@H]1CN([C@@H](C)CO)C(=O)c2ccccc2-c2ccccc2CO[C@@H]1CN(C)C(=O)Nc1cccc(F)c1`, the relative growth was inactive: 0.977. Regarding `Cc1ccc(S(=O)(=O)Nc2cccc3c2O[C@H](CN(C)C(=O)NC(C)C)[C@@H](C)CN([C@H](C)CO)C3=O)cc1`, the relative growth was inactive: 0.99. For `CC#CCOC(=O)C1=CCCN(C)C1`, the relative growth was inactive: 1.02. Regarding `C[C@@H]1CN([C@@H](C)CO)C(=O)c2cc(NC(=O)NC3CCCCC3)ccc2O[C@H]1CN(C)S(=O)(=O)c1cn(C)cn1`, the relative growth was inactive: 1.01. As for `C[C@@H]1CN([C@H](C)CO)C(=O)c2cc(-c3ccncc3)cnc2O[C@H]1CN(C)S(=O)(=O)c1ccccc1`, the figure is inactive: 1.04; as for `C[C@@H]1CCCCO[C@H](CN(C)C(=O)NC2CCCCC2)[C@@H](C)CN([C@H](C)CO)C(=O)c2cc(NS(=O)(=O)c3ccc(Cl)cc3)ccc2O1`, inactive: 1.
